Data from PubChem BioAssay AID360 (National Center for Advancing Translational Sciences (NCATS), 2006).
About 550 (1.1%) of roughly 48,000 compounds were called active. Inconclusive results (about 4%) are left out. Rule as the data show it: active = potency below about 15 µM; inconclusive = mostly about 16 µM to 33 µM; inactive = weaker than that. The list shows a part of the results.

Target: Lysosomal acid glucosylceramidase (Homo sapiens) (UniProt P04062)
Test: Glucocerebrosidase;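 also: the screen sought inhibitors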
Conditions: purified enzyme, resorufin glucoside fluorescence (screen aimed at inhibitors), 20 min
Procedure, shortened: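 Compounds titrated against 0.2 nM normal enzyme, 30 uM resorufin beta-D-glucopyranoside substrate, citrate/phosphate buffer with taurocholate and tween-20, pH 5.9. Reaction ran 20 min at room temperature; fluorescence (Ex 548/Em 600) gave AC50.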
Potency is read from the fitted curve at half-maximal effect.

Sequence of UniProt P04062 (P04062 whole entry, looked up): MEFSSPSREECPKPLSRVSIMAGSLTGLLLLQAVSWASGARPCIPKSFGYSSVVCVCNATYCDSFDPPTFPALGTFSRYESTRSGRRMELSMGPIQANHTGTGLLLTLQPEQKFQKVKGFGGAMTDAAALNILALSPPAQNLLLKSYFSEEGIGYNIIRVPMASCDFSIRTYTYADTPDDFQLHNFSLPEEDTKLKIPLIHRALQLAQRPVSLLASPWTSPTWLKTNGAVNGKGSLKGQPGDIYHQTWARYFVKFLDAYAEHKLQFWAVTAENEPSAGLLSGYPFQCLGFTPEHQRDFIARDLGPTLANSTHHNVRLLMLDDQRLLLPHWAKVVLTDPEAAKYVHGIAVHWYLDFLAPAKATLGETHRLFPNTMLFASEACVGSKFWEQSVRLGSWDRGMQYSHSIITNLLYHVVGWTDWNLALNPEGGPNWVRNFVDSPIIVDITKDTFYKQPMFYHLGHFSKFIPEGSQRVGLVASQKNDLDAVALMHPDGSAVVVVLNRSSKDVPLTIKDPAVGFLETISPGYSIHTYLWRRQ

Potency, inactive:
Cc1nn(C(C)(C)C)c(OC(=O)c2cccs2)c1S(=O)(=O)c1ccccc1 > 76.9 µM
CN(C(=O)c1coc(=O)c2ccccc12)c1ccc(F)cc1 > 76.9 µM
C=CCn1c(SCC(=O)c2ccc(CNC(C)=O)o2)nc2scc(C3CC3)c2c1=O > 76.9 µM
O=C(Nc1nnc(-c2ccncc2)s1)C1CCCO1 (stereo unspecified) > 76.9 µM
COc1ccc2oc(=O)c(C(=O)N3CCN(C45CC6CC(CC(C6)C4)C5)CC3)cc2c1 > 76.9 µM
CS(=O)(=O)N1CCC(C(=O)Nc2cccc(C(F)(F)F)c2)CC1
CC(C)C(NC(=O)C1CCCCC1)C(=O)Nc1ccccn1 (stereo unspecified) > 76.9 µM
CCOC(=O)COc1ccc(S(=O)(=O)Nc2ccc3c(c2)OCCO3)cc1 > 76.9 µM
COc1ccc(OCCCC(=O)N2CCCc3ccccc32)cc1 > 76.9 µM
COc1ccc(C(C)=O)cc1COC(=O)c1c(C)noc1C > 76.9 µM
Cc1cccc(OCCc2nnc(N)s2)c1C > 76.9 µM
Cc1nnc(SCC(=O)N2CCOCC2)s1 > 76.9 µM
Cc1ccccc1Nc1nc(N)nc(CSc2nc3ccccc3c(=O)n2CCCO)n1 > 76.9 µM
COc1cccc2cc(C(=O)n3ccc(C)n3)c(=O)oc12 > 76.9 µM
O=C(c1ccccc1)N(Cc1ccc(F)cc1)C1CCS(=O)(=O)C1 (stereo unspecified) > 76.9 µM
COc1ccc(N2C(=O)CCC(C(=O)N3CCCCC3)C2c2ccc(OC)c(OC)c2)cc1 (stereo unspecified) > 76.9 µM
CCCN1C2CCCC1CC(NC(=O)c1cc(OC)c(OC)c(OC)c1)C2 (stereo unspecified) > 76.9 µM
CCOc1ccc(C(C)=O)cc1N1C(=O)C2C3C=CC(O3)C2C1=O (stereo unspecified) > 76.9 µM
CCOC(=O)C1CCCN(C(=O)C2CCCN(S(C)(=O)=O)C2)C1 (stereo unspecified) > 76.9 µM
O=C(CCn1c(=O)[nH]c2ccsc2c1=O)N1CCN(c2cccc(Cl)c2)CC1 > 76.9 µM
CCN(CC)P(=O)(C(NC(=O)OC)C(F)(F)C(F)(F)C(F)(F)C(F)F)N(CC)CC (stereo unspecified) > 76.9 µM
COc1ccc(-n2c(=O)cc(N3CCN(c4ccccc4OC)CC3)[nH]c2=O)cc1 > 76.9 µM
COc1cccc(NC(=O)C2C3C=CC4(O3)C2C(=O)N(C(C)C)C4C(=O)NC2CCCCC2C)c1 (stereo unspecified) > 76.9 µM
CCOc1ccccc1OCCn1nnc2ccccc21 > 76.9 µM
COC(=O)Cn1c2c(c3cc(C)ccc31)CCCC2 > 76.9 µM
Cn1ccnc1SCC(=O)NC12CC3CC(CC(C3)C1)C2 > 76.9 µM
CC(N=c1ccccn1C(=O)Nc1ccc(Cl)cc1)c1ccco1 (stereo unspecified) > 76.9 µM
CC(C(=O)NC1CCCC1)N(Cc1ccco1)C(=O)c1snc(C(=O)NC2CCCC2)c1N (stereo unspecified) > 76.9 µM
CC(=O)N1CCc2cc(S(=O)(=O)NC(C(=O)NC3CCCc4ccccc43)C(C)C)ccc21 (stereo unspecified) > 76.9 µM
CCOC(=O)c1sc2nc(CSc3nc4ccccc4n3CC)[nH]c(=O)c2c1C > 76.9 µM
CC(=O)Nc1ccc2nc(-c3ccccn3)[nH]c2c1 > 76.9 µM
C=CCn1c(SCC(=O)NC(=O)NCc2ccco2)nc2sc(CC)cc2c1=O > 76.9 µM
Cc1oc(-c2ccc(Cl)cc2)nc1CN1CCC(C(=O)NCc2cccnc2)CC1 > 76.9 µM
CCOc1nc2c(c(=O)n(C)c(=O)n2C)n1Cc1ccccc1Cl > 76.9 µM
CC(C)NC(=O)Cn1c(SCC(=O)N2CCCc3ccccc32)nc2ccccc21 > 76.9 µM
CSC1=C(C#N)C(c2cccs2)CC(=O)N1C (stereo unspecified) > 76.9 µM
Cc1cc(C)c(OCC(=O)Nc2ccc3c(c2)OCO3)cc1C > 76.9 µM
Cc1cc(C)n(-c2ccc(C(=O)Nc3nc4ccccc4s3)cc2)n1 > 76.9 µM
O=C(O)c1ccc(CSc2ncn[nH]2)cc1 > 76.9 µM
CC(=O)NC(=S)c1c(N)n(Cc2ccccc2)c(=O)n(C)c1=O > 76.9 µM
Clc1ccc(Cl)c(OCCN2CCOCC2)c1 > 76.9 µM
CC(C)(C)n1ncc2c(=O)n(CC(=O)N3CCCCCC3)cnc21 > 76.9 µM
CC(OCC(O)CN(C)CCOc1ccccc1)c1ccc(Cl)cc1 (stereo unspecified) > 76.9 µM
COc1ccc(OC)c(CNC(=O)Cc2c(C(=O)O)[nH]c3ccccc23)c1 > 76.9 µM
COCCCNC(=O)C1CCN(c2ncccn2)CC1 > 76.9 µM
CCS(=O)(=O)/N=C(\N)c1ccccc1 > 76.9 µM
COc1ccc(O)c(-c2cn[nH]c2-c2cccs2)c1 > 76.9 µM
O=C(Cn1nc(C(F)(F)F)c2c1CCC2)NCc1ccc(F)cc1 > 76.9 µM
Cc1ccc2cc(CN(Cc3nnnn3C3CCCCC3)CC3CCCO3)c(=O)[nH]c2c1 (stereo unspecified) > 76.9 µM
Cc1cc(NC(=O)COC(=O)C2CCN(S(=O)(=O)c3ccc(Cl)cc3)CC2)no1 > 76.9 µM
Cc1ccc(C(=O)CCNc2ccc(F)c(Cl)c2)o1 > 76.9 µM
O=C(c1ccccc1Oc1nnnn1-c1ccccc1)N1CCOCC1 > 76.9 µM
O=C(O)CC(O)C(=O)O (stereo unspecified) > 76.9 µM
Cc1nnc(SCc2cccc(Oc3ccccc3)c2)n1N > 76.9 µM
CCn1c(=O)c2cc(S(=O)(=O)NCc3ccccc3)ccc2n(CC)c1=O > 76.9 µM
CCOc1cccc(CN2CCN(c3cccc(C(F)(F)F)c3)CC2)c1O > 76.9 µM
O=C(c1cc2cc(Cl)cc(Cl)c2oc1=O)N1CCOCC1 > 76.9 µM
COc1ccc(OCC(=O)N2CCN(c3nnc(-c4ccccc4)c4ccccc34)CC2)cc1 > 76.9 µM
O=C(CCCC(=O)N(CC(=O)NC1CCCC1)Cc1ccc2c(c1)OCO2)Nc1ccccn1 > 76.9 µM
Cc1cc(C)nc(-n2nc(C)cc2NC(=O)CN2CCc3ccccc3C2)n1 > 76.9 µM
COC(=O)c1[nH]c(C)c(/C(O)=C2\C(=O)C(=O)N(CCN(C)C)C2c2ccc(C)o2)c1C (stereo unspecified) > 76.9 µM
CCOC(=O)c1ccc(NC(=O)Nc2ccc3c4c(cccc24)C(=O)N3CC)cc1 > 76.9 µM
O=C(Nc1ccc2c(c1)OCO2)C(c1ccccc1)N1CCC2(CC1)OCCO2 (stereo unspecified) > 76.9 µM
CCOC(=O)C1CCN(C(=O)CN(C)S(=O)(=O)c2cc(C)ccc2OC)CC1 > 76.9 µM
CCOCCCNC(=O)C1CCC(CNS(=O)(=O)c2ccc(F)cc2)CC1 (stereo unspecified) > 76.9 µM
CCN1C(=O)c2cccc3c(S(=O)(=O)NCc4ccco4)ccc1c23 > 76.9 µM
CC(=O)OC(C(=O)NCc1ccc2c(c1)OCO2)c1ccccc1Cl (stereo unspecified) > 76.9 µM
CCOC(=O)Cc1cc(=O)n(-c2nc3ccccc3s2)[nH]1 > 76.9 µM
COc1ccc(OC)c(C(=O)c2oc3ccccc3c2NC(C)=O)c1 > 76.9 µM
CCn1c(=O)c2ccccc2n2c(SCC(=O)NCc3cccs3)nnc12 > 76.9 µM
Cc1cccn2c(=O)c(C=NCc3ccccc3)c(NCCO)nc12 > 76.9 µM
COc1ccc(C(C)(C)C)cc1NC(=O)c1ccoc1C > 76.9 µM
COc1ccccc1-c1noc(-c2ccccc2)n1
Cc1cccc(NC(=O)CN(C)S(=O)(=O)c2cnc[nH]2)c1 > 76.9 µM
COc1ccccc1NC1SC(=O)N(c2ccccc2)C1=O (stereo unspecified) > 76.9 µM
C=C(C)c1cccc(C(C)(C)NC(=O)Nc2ncccn2)c1 > 76.9 µM
CC(=O)c1c(C)nn(CCC(=O)O)c1C > 76.9 µM
COC(=O)c1ccccc1NC(=O)c1ccccc1OC > 76.9 µM
O=c1[nH]n(CC2COC3(CCCCC3)O2)c(=O)c2ccccc12 (stereo unspecified) > 76.9 µM
COc1ccc(CC(=O)NCc2nnc(SCCOc3ccccc3)n2C)cc1 > 76.9 µM
COc1cccc(Cn2c(=S)[nH]c3ccc(N4CCOCC4)cc3c2=O)c1 > 76.9 µM
O=c1c2ccccc2nc(-c2ccco2)n1/N=C/c1ccco1 > 76.9 µM
O=C(Nc1ccccc1C(F)(F)F)c1cccnc1 > 76.9 µM
Cc1c(C(=O)CN2CCOCC2)[nH]c2ccccc12 > 76.9 µM
O=S(=O)(O)c1nnc2sc3ccccc3n12 > 76.9 µM
Cc1c(NC(=O)N2CCCCCC2)c(=O)n(-c2ccccc2)n1C > 76.9 µM
COc1ccc(S(=O)(=O)N2CCC(C(=O)NCc3cccc(OC)c3)CC2)cc1 > 76.9 µM
Cc1ccc(Cl)cc1N1CCN(C(=O)Cn2ccc3ccccc3c2=O)CC1 > 76.9 µM
Cc1nc2oc3c(NCc4ccccn4)ncnc3c2c2c1COC(C)(C)C2 > 76.9 µM
COc1ccccc1CNS(=O)(=O)c1cc(C)ccc1OC > 76.9 µM
CC1(C)Oc2ccc(C(=O)N3CCOCC3)cc2N(CC(=O)N2CCOCC2)C1=O > 76.9 µM
